# Measured values from paper PMC4336329 (PLoS ONE, 2015).
# Out of some 310,000 compounds screened, about 14,000 (4.5%) showed an effect of 50% or more. The effect is printed as a negative number. The list shows a part of the results.
# Molecular target: human ether-à-go-go-related gene (hERG) potassium channel (human, UniProt Q12809)
# Assay: primary screen, population patch clamp on CHO cells stably expressing hERG
# 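Further: peak tail current of the secondary pulse compared with the same well before compound.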
# human ether-à-go-go-related gene (hERG) potassium channel, sequence (Q12809 whole entry, looked up): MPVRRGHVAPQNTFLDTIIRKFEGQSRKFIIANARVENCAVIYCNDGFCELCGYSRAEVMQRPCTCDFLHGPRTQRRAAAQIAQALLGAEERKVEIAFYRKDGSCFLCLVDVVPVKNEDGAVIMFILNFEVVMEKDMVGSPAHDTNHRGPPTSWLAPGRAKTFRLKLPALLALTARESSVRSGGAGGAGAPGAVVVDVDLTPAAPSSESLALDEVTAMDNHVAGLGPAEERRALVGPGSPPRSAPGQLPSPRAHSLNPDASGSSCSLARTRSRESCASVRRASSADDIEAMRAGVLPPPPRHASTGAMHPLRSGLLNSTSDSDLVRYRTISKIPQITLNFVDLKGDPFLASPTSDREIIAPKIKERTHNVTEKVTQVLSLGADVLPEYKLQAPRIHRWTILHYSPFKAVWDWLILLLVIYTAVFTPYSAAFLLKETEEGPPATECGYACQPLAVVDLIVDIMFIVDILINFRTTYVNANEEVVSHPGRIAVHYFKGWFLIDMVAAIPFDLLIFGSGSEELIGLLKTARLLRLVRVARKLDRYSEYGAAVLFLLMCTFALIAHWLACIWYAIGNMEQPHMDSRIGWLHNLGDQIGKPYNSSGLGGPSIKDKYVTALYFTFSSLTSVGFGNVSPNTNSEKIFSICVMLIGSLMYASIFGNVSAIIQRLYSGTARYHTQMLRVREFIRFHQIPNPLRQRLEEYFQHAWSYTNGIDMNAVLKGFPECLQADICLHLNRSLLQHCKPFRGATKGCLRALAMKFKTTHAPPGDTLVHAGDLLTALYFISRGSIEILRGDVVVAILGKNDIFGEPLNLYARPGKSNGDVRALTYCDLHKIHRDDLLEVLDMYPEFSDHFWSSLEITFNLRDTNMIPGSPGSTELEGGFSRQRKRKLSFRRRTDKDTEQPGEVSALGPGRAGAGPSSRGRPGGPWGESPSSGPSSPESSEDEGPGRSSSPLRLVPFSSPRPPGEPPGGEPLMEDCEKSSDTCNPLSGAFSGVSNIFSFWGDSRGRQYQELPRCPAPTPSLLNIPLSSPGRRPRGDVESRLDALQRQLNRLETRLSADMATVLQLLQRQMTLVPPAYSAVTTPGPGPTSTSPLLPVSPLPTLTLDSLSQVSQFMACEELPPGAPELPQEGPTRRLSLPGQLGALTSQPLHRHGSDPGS
row,SMILES,"hERG current change (%, negative = inhibition) at 10uM [%]"
1,COc1ccc(NC(=S)Nc2ccccc2F)c(OC)c1,19.9
2,CN1C(=O)CSC1=NC12CC3CC(CC(C3)C1)C2,-6.85
3,COc1ccc(S(=O)(=O)N2CCOC2CNC(=O)C(=O)NCCc2ccc(S(N)(=O)=O)cc2)cc1 (centres unmarked),19
4,CSc1ccc(C(=O)C2CCCN(S(=O)(=O)N(C)C)C2)cc1 (centres unmarked),10.5
5,CC(C)CC(=O)N=Nc1c(O)[nH]c2ccccc12,2.7
6,Cc1nc(C(=O)N2CCOCC2)sc1C1(C)CC(c2ccccc2)=NO1 (centres unmarked),-7.45
7,COc1ccc(-n2c(C)cc(/C=C3\C(=N)N4N=C(CC(=O)N5CCOCC5)SC4=NC3=O)c2C)cc1,8.34
8,COC(=O)/C=C1/S/C(=N/NC(=O)c2ccccc2OC)NC1=O,26.4
9,O=[N+]([O-])c1ccc(CSc2ccc(-c3ccccn3)nn2)cc1,-4.56
10,CCCCCCCCN1[C@@H](CC(C)=O)c2cc(C(F)(F)F)ccc2S1(=O)=O,-3.95
11,COc1ccc(NC(=O)Cc2ccc(Cl)cc2Cl)cn1,-3.87
12,CCS(=O)(=O)N1Cc2ccccc2CC1C(=O)Nc1ccc(C)cc1 (centres unmarked),-14
13,O=C(N/N=C/c1cc(Br)cc(Cl)c1O)c1ccc2c(c1)OCO2,7.63
14,Cc1ccc([C@@H]2CC=C(C(=O)O)[C@H](c3ccc(Cl)cc3)N2S(=O)(=O)c2ccc(C)cc2)cc1,13.4
15,CCn1c(SCc2nc3sc(C(=O)O)c(C)c3c(=O)[nH]2)nc2ccccc21,3.32
16,CC(=O)c1ccc(OC(=O)CN2C(=O)c3ccccc3C2=O)cc1,16.8
17,CSc1nc(N(C)CCO)c2sc3nc(-c4ccco4)c4c(c3c2n1)CCC4,1.18
18,COc1ccccc1CN(C)CC(=O)Nc1cccc2ccccc12,-12.7
19,O=C(O)CSc1nc2ccccc2n1Cc1ccccc1,0.664
20,Cc1cccc(NC(=O)CC2S/C(=N/c3nccs3)N(C)C2=O)c1 (centres unmarked),1.69
21,CCc1cccc2c(C(=O)CCl)c[nH]c12,-14.3
22,CCOc1ccc(C2=CSC3=NCCN23)cc1Cl,-22.8
23,Cc1ccc(C(=O)Cn2cccn2)cc1,23.7

row,SMILES,"hERG current change (%, negative = inhibition) at 10uM [%]"
1,O=C(O)c1c(C(=O)O)c(-c2ccc(Cl)c(Cl)c2)n2c1CSC2,28.2
2,CC(C)(C)C(=O)NCCCc1ccccc1,-18.7
3,COc1cnc(-c2ccccn2)nc1N(C)C,-1.39
4,N=C1N(/N=C/c2ccccc2)C(=Nc2ccccc2)C(=S)N1c1ccccc1,2.03
5,CC(C)Oc1ccc(CCc2nnc(SC(C)C(=O)O)n2-c2ccccc2)cc1 (centres unmarked),5.67
6,CCN(CC(=O)NCc1ccc(F)cc1)C(=O)COc1ccc(C)c(C)c1,-53.6
7,Cc1ccc(Nc2nc(N)nc(CN3CCCCCC3)n2)cc1,-72.1
8,COC(=O)c1ccc(N=NN2CCCCCC2)cc1,6.38
9,CCCNC(=O)c1ccccc1NC(=O)c1ccccc1N(C)S(=O)(=O)c1ccccc1,-3.98
10,COC(=O)C1=C(C)Nc2c(c(=O)n(C)c(=O)n2C)C1c1cccnc1 (centres unmarked),-2.61
11,CCOCC(=O)Nc1ccc(C)c(Cl)c1,-0.343
12,c1cc(C(c2nnnn2C2CCCC2)N2CCOCC2)ccn1 (centres unmarked),0.132
13,CN(Cc1ccccc1)C(=O)c1ncn(C)c1C(=O)N(C)Cc1ccccc1,8.39
14,Cc1ccc(S(=O)(=O)NCCCNS(=O)(=O)c2ccccc2)cc1,-7.76
15,Clc1ccc(-c2onc3c2CCCC3)cc1,6.27
16,CCCCNC(=S)NC(C)(C)CO,11.8
17,COCCn1c(C2CCCCC2)nc2sc3ccccc3c(=O)c2c1=O,-5.29
18,CCn1c(SCC(=O)Nc2ccc3[nH]c(=O)[nH]c3c2)nnc1-c1ccccc1,-16.1
19,CCNc1nc(NC(C)C)nc(N(C#N)C(C)C(=O)N(CC)CC)n1 (centres unmarked),-19.9
20,CC(C)(C)N(Cc1ccccc1)C(=O)COc1cccnc1[N+](=O)[O-],8.46
21,CCn1cc(CN2CCC(n3nccc3NC(=O)CCOc3ccccc3)CC2)c(C)n1,7.84
22,Cc1cc2c(cc1S(=O)(=O)NCc1ccc(N(C)C)cc1)OCC(=O)N2,-25.7
23,Cc1ccc(Sc2ncccc2/C=N/O)cc1,-33.9

row,SMILES,"hERG current change (%, negative = inhibition) at 10uM [%]"
1,CCOC(=O)C1(Cc2cccc(F)c2)CCN(CCCn2cccn2)CC1,-74.6
2,COCCCN(C(=S)Nc1cccc(Cl)c1)C(C)c1ccncc1 (centres unmarked),-17.3
3,COc1ccc(C(C(=O)NCC2CCCO2)N(Cc2ccccc2)C(=O)c2snc(C(N)=O)c2N)cc1OC (centres unmarked),8.27
4,NC(=O)[C@@H]1CCCN1Cc1nc(Cc2ccccc2Cl)no1,14.5
5,COc1ccc(CN(C(=O)c2snc(C(N)=O)c2N)C(C(=O)NC(C)(C)C)c2ccco2)cc1 (centres unmarked),-3.85
6,Cc1ccc(CSCC2Nc3ccc(C(=O)N4CCN(c5cccc(C)c5)C(C)C4)cc3NC2=O)cc1 (centres unmarked),28.9
7,O=C(NCCOc1ccccc1F)c1cc([N+](=O)[O-])ccc1N1CCOCC1,-45.1
8,CCOc1ccc(N2C(=O)S/C(=C\c3ccc(O)c(OC)c3)C2=O)cc1,13.3
9,N#CCc1ccc(C(=O)c2ccccc2)s1,-4.52
10,Cc1c(C(=O)NCc2ccco2)oc2c(Cl)cccc12,14.5
11,CC(C)CCNC(=O)C1CCC(CNS(=O)(=O)c2ccc(Cl)cc2)CC1 (centres unmarked),19.6
12,CCc1nccn1S(=O)(=O)c1ccc(C)c(C)c1,5.21
13,Cc1nnc(Sc2nc3c(c(=O)[nH]c(=O)n3C)n2CCc2ccccc2)s1,-21.4
14,Cc1ccc(Cl)c(OCC(=O)OCC(=O)NC2CCCc3ccccc32)c1 (centres unmarked),12.2
15,Cc1ccc(S(=O)(=O)N2CCOCC2)cc1NC(=O)COC(=O)c1ccc(OCc2c(C)noc2C)cc1,-18.6
16,CCCCC(=O)NC(NC(=S)N1CCCCCC1)C(Cl)(Cl)Cl (centres unmarked),19.5
17,Cc1ccc(C(=O)N2CCN(Cc3nc4sc5c(c4c(=O)[nH]3)CCCC5)CC2)cc1,-76
18,Cc1nccnc1Sc1ccccc1,22.4
19,CCO[C@H]1OC(C(=O)NCc2nc3ccccc3[nH]2)=C[C@@H](c2ccc3c(c2)OCO3)[C@@H]1CCCO,-28.9
20,Cc1ccccc1C(O)c1ccncc1 (centres unmarked),1.43
21,CCN1C(=O)c2ccc(C(=O)NCc3ccco3)cc2C1=O,0.978
22,Fc1cccc(Cc2noc(CN3CCOCC3)n2)c1,11.4
23,CCc1nnc(NC(=O)CSc2nnc(C)n2Cc2ccccc2)s1,-1.03

row,SMILES,"hERG current change (%, negative = inhibition) at 10uM [%]"
1,COc1cc(-n2c(=O)c3ccccc3n(Cc3ccccc3)c2=O)cc(OC)c1OC,-2.73
2,O=C(Nc1cccc(C(F)(F)F)c1)c1ccc(-n2cncn2)nc1,-19.5
3,Cc1ccc(N2CCN(C(=S)c3ccc(N(C)C)cc3)CC2)cc1,-6.33
4,COc1ccc(C(CNC(=O)C(Cc2ccccc2)NC(N)=O)N(C)C)cc1 (centres unmarked),12.3
5,CC(=O)N1c2ccc([N+](=O)[O-])cc2NC(=O)CC1C (centres unmarked),22.2
6,O=C(CCN1C(=O)/C(=C/c2ccccc2)SC1=S)NNC(=O)c1ccncc1,7.05
7,Cc1nc2c(C(=O)NCCC(C)C)c[nH]n2c(=O)c1Cc1ccccc1F,-1.66
8,COc1ccc(N(C(=O)c2ccco2)S(=O)(=O)c2cc(Cl)c(Cl)cc2Cl)cc1,-8.39
9,CC1(C)C(O)=C(c2nc3ccccc3[nH]2)C(=N)N1c1ccccc1,-7.22
10,CC(=O)Nc1ccc(S(=O)(=O)N2CCC(C(=O)NCCC(=O)Nc3ccccc3)CC2)cc1,16.9
11,Cc1ccc(Sc2ncccc2C(=O)N(C)Cc2cccs2)c(C)c1,-6.44
12,COCC(=O)n1nc(-c2ccc(Cl)cc2)nc1NCc1ccc(F)cc1,2.39
13,COc1ccc(NC(=O)CSc2nc(N)c(NC(=O)c3cccs3)c(=O)[nH]2)cc1,9.34
14,CCc1ccc(NC(=O)c2ccc(F)c(S(=O)(=O)NCC3COc4ccccc4O3)c2)cc1 (centres unmarked),-14.3
15,CCC(=O)N1CCN(c2ccccc2NC(=O)COc2cc(C)ccc2C(C)C)CC1,-27
16,O=C(COc1ccccc1)NNC(=S)NC(=O)c1ccccc1,16.5
17,CCOc1ccc(S(=O)(=O)Nc2ccc(C(=O)NCC(c3ccco3)N3CCCCC3)cc2)cc1 (centres unmarked),-25.1
18,CCn1c(SCC(=O)N2CCOCC2)nnc1-c1ccco1,-19.3
19,Cc1cccnc1NC(=S)Nc1ncccc1C,11.4
20,CC(C)C(NC(=O)c1ccccc1)C(=O)OCC(=O)N1CCCCC1 (centres unmarked),16.9
